Laboratory results taken from PubChem BioAssay (NCATS).
The shares of active, inactive and inconclusive entries below differ from those in the screen. For some of these results: No potency is given beside an inconclusive call; the fits are too rough. Calls of active or inactive are those of the source. Calls come from the whole dose curve; as a rule, active = well fitted curve in the direction sought with a large enough effect; inconclusive = small, poorly fitted or top-dose-only effect, or another doubt; inactive = no such curve, though single readings can be large; an effect the other way counts as inactive or inconclusive.

Key:
[1] = target: Tyrosyl-DNA phosphodiesterase 1 (Homo sapiens) (UniProt Q9NUW8); test: Confirmation Assay for Inhibitors of Tyrosyl-DNA Phosphodiesterase (TDP1) (AID 489007); conditions: recombinant human TDP1 enzymatic activity, dose-response; note: potency is the fitted concentration of half-maximal effect; nearly all actives have a fitted effect of over 40% in size
Method in brief: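 Loss of AlphaScreen signal reports Tdp1 cleavage of a dual-labelled DNA substrate. Conditions: 1 nM E. coli-derived enzyme, 15 nM substrate, 15 min compound preincubation, 5 min reaction, 10 min bead incubation, all at room temperature.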

[2] = qHTS for Inhibitors of WRN Helicase: Thiazole Orange DNA Binding Counterscreen (AID 720499); conditions: thiazole orange DNA binding displacement, fluorescence;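 note: drop in dye fluorescence marks compound binding to DNA; nearly all actives have a fitted effect of over 60% in size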; note: potency is the fitted concentration of half-maximal effect; for activity change, negative = inhibition: % is set by controls: 0 for no effect and ±100 for the full control effect
Method in brief: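 Fluorescent ThO–DNA complex (100 nM dye, 50 nM unlabeled DNA) exposed to test compounds for 15 min at room temperature; emission at 530 nm after 480 nm excitation reports dye displacement.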

[3] = target: Bifunctional 3'-5' exonuclease/ATP-dependent helicase WRN (Homo sapiens) (UniProt Q14191); test: qHTS for Inhibitors of WRN Helicase: Confirmatory Assay for Cherry-picked Compounds. (AID 720497); conditions: WRN helicase DNA unwinding, fluorescence kinetic; note: potency is the fitted concentration of half-maximal effect; nearly all actives have a fitted effect of over 65% in size
Method in brief: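 Confirmatory retest of cherry-picked hits in 1536-well format. Enzyme (20 nM final) sat with compound for 15 min at room temperature before forked duplex substrate (100 nM) and ATP (2 mM) were added, and unwinding was followed kinetically by red fluorescence.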

[4] = target: DNA polymerase eta (Homo sapiens) (UniProt Q9Y253); test: qHTS for Inhibitors of Polymerase Eta: Confirmatory Assay for Cherry-picked Compounds (AID 720502); conditions: Pol eta primer extension, TAMRA/BHQ fluorescence, 10 min; note: potency is the fitted concentration of half-maximal effect
Method in brief: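 The reaction starts with 50 nM final labeled DNA substrate added to Pol eta (10 nM) that had sat with compound for 15 min. TAMRA emission at 598 nm is read at 0 and 10 min.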

[5] = target: Ubiquitin carboxyl-terminal hydrolase 1 (Homo sapiens) (UniProt O94782); test: Inhibitors of USP1/UAF1: Pilot qHTS (AID 504865); conditions: purified USP1/UAF1, Ub-rhodamine cleavage fluorescence; note: potency is the fitted concentration of half-maximal effect;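 note: rhodamine fluorescence freed from ubiquitin-rhodamine substrate followed over time; nearly all actives have a fitted effect of over 35% in size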; for activity change, negative = inhibition: top concentration of the series differs between compounds; % is set by controls: 0 for no effect and ±100 for the full control effect
Method in brief: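 In 50mM HEPES pH 7.8 containing 0.5mM EDTA, 1mM TCEP, 0.1 mg/ml BSA and 0.01% Tween-20, 1nM USP1/UAF1 is exposed to compound for 15 min, then Ub-Rho (150nM final) is added and fluorescence is read over time.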

[6] = target: Cytochrome P450 2C9 (Homo sapiens) (UniProt P11712); test: qHTS Assay for Inhibitors and Substrates of Cytochrome P450 2C9 (AID 883); conditions: recombinant CYP2C9, luciferin-H luminescence, 60 min; activity change, negative = inhibition: at 57.1 µM (top of the series); note: % is set by controls: 0 for no effect and ±100 for the full control effect; nearly all actives have a fitted effect of over 60% in size
Method in brief: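 Human CYP2C9 (10nM) hydroxylated Luciferin-H (100uM, at its KM) to luciferin in 25mM KPO4. Compound was preincubated 10 min at 37C, then NADPH regeneration started a 60 min reaction at 37C. Luminescence was read after detection reagent, normalized to 57uM sulphaphenazole.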
Tags give direction and shape of the fitted curve.

Sequence of UniProt Q9NUW8 (Q9NUW8 whole entry, looked up): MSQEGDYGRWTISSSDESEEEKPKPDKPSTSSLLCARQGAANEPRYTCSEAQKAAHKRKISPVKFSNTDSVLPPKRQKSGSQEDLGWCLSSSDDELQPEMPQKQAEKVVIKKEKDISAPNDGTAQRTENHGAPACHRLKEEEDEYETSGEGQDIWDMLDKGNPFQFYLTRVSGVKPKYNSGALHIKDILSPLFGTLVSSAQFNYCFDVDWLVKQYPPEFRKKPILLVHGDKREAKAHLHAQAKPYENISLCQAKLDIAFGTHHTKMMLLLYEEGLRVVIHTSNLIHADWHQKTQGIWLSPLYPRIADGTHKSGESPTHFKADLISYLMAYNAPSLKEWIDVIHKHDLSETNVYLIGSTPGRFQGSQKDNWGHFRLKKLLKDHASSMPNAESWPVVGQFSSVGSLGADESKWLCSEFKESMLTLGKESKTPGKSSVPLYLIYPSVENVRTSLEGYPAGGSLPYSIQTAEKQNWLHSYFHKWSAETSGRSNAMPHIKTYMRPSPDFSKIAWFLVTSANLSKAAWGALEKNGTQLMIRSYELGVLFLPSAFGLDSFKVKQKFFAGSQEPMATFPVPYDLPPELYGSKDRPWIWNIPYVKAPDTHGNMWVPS
Sequence of UniProt Q9Y253 (Q9Y253 whole entry, looked up): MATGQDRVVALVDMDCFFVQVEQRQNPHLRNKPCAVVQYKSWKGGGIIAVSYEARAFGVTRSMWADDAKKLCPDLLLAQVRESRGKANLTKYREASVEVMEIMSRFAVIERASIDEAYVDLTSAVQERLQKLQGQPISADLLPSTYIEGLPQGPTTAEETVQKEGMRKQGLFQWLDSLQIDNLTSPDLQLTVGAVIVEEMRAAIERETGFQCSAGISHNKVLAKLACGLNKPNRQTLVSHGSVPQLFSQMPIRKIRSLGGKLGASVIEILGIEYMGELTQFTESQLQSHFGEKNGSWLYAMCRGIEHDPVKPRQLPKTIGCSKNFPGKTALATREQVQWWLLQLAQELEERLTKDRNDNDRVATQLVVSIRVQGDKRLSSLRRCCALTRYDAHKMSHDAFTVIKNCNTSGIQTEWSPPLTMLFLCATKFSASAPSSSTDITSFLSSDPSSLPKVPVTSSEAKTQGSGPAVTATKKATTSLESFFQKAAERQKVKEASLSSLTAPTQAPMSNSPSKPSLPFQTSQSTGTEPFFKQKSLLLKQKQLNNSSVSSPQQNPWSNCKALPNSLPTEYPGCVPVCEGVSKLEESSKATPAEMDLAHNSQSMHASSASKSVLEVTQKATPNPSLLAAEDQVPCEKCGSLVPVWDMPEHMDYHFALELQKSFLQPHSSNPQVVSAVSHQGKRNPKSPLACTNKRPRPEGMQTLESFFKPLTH
Sequence of UniProt O94782 (O94782 whole entry, looked up): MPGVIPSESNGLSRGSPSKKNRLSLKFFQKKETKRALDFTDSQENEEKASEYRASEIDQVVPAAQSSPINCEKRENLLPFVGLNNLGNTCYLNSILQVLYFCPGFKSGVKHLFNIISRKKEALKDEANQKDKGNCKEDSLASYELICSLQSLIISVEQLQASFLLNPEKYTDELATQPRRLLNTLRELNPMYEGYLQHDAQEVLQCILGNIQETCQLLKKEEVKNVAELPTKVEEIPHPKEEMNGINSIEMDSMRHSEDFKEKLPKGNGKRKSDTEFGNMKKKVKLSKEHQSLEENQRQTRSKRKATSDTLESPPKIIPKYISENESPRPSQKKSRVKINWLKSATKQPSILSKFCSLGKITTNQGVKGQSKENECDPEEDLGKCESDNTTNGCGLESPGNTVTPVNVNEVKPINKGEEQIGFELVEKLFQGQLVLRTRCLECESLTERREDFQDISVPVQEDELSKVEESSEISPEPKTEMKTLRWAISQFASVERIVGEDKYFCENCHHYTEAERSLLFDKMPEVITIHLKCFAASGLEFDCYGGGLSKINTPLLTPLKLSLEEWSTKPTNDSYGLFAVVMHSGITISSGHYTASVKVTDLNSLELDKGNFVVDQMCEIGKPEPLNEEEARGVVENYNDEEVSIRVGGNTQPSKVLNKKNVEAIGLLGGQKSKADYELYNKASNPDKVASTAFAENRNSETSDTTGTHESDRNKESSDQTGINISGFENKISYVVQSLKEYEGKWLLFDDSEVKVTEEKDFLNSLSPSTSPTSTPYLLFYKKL
Sequence of UniProt P11712 (P11712 whole entry, looked up): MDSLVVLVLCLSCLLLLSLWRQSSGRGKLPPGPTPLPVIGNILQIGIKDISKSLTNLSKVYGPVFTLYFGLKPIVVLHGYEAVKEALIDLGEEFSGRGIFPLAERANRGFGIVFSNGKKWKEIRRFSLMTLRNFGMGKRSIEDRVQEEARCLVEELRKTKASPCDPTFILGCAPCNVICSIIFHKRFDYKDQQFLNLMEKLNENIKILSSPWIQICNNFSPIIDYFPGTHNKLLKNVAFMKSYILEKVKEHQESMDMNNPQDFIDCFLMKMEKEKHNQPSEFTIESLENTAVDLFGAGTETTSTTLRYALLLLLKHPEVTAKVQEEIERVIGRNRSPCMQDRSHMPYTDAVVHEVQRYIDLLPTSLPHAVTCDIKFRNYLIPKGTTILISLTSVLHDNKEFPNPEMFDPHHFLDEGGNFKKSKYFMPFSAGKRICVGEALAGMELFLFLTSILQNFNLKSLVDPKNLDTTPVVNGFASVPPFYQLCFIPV
Sequence of UniProt Q14191 (Q14191 whole entry, looked up): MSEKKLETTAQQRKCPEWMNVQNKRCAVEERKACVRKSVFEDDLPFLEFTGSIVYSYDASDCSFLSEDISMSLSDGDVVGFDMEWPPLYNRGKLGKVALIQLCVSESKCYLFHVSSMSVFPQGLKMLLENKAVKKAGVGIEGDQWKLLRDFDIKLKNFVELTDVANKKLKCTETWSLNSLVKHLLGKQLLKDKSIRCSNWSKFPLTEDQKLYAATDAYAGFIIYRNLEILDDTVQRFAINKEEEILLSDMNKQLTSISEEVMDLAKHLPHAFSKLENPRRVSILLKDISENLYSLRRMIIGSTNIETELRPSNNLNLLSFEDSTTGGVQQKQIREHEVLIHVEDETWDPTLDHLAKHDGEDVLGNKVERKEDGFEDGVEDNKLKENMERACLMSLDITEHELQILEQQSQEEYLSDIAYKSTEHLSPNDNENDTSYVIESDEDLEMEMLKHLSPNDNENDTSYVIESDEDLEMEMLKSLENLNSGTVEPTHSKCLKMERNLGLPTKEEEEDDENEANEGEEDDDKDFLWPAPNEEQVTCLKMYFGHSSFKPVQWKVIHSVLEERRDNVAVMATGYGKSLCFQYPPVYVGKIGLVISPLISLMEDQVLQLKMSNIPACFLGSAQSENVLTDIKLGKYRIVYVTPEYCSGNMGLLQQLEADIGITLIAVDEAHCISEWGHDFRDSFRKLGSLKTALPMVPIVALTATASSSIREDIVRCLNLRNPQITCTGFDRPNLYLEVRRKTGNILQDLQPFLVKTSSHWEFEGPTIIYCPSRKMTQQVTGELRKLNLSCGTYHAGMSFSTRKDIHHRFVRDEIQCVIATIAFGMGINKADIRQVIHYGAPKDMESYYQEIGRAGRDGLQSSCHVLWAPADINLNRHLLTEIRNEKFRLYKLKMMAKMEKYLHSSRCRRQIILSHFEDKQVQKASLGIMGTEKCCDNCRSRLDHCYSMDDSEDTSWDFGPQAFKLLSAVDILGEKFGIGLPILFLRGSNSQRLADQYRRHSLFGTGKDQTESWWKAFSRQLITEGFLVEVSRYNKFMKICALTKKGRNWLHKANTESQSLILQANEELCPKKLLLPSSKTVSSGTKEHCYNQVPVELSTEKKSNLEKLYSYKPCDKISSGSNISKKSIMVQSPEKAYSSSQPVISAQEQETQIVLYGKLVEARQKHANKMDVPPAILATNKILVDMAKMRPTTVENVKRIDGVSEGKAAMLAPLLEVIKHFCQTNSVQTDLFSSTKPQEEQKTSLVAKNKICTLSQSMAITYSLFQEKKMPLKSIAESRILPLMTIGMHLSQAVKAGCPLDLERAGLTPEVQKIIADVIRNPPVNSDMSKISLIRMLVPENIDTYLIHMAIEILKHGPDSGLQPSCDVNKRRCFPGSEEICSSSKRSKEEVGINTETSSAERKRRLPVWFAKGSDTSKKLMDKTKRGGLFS

With O=C(CSc1nc2ccccc2[nH]1)NC1CCCC1 the Potency [1] was active: 14.1 µM.
For COc1ccc2cc3c(N)nn(C(=O)c4ccc(OC)c(OC)c4)c3nc2c1, the Potency [1] was inconclusive [inhibitor, single point].
With COc1ccc(-n2c(NC(=O)c3ccc(Br)o3)c(C#N)c3nc4ccccc4nc32)cc1 the Potency [1] was active: 100 µM.
In the case of O=C(/C=C/c1ccccc1)NC(=O)c1ccccc1O, the Potency [1] is reported as inconclusive [inhibitor, partial curve, poor fit].
With CC1(C)CCCN(C(=O)c2coc(=O)c(Br)c2)C1 the Potency [1] was inconclusive [inhibitor, full curve] and the Potency [2] was inconclusive [inhibitor, partial curve, poor fit].
For CSc1nnc(SCc2nc3sc(C(=O)O)c(C)c3c(=O)[nH]2)s1, the Potency [1] was inconclusive [inhibitor, full curve], the Potency [3] was active: 13.6 µM and the Potency [2] was inconclusive [inhibitor, partial curve].
For N#C/C(=C\c1ccc(OCc2ccc(F)cc2)cc1)C(=O)Nc1cccc(C(=O)O)c1, the Potency [1] was active: 14.1 µM and the Potency [4] was inconclusive [inhibitor, single point].
With Cc1cc(O)c(C=O)c2c1C(=O)Oc1c(C)c(O)c3c(c1O2)C(O)OC3=O (centres undefined) the Potency [1] was active: 5.62 µM and the Potency [5] was active: 39.8 µM.
For COc1cc(C2c3c([nH]c(=O)[nH]c3=O)Nc3ccc4ccccc4c32)cc(OC)c1OC (centres undefined), the Potency [1] was inconclusive [inhibitor, full curve] and the Potency [4] was active: 60.1 µM.
In the case of O=C(CCS(=O)(=O)c1ccc(Br)cc1)NCc1cccs1, the Potency [1] is reported as inconclusive [inhibitor, partial curve] and the Potency [4] is reported as inconclusive [inhibitor, single point].
For CC(=C\C(=O)O)/C(=C/c1ccc(C)o1)C(=O)O, the Potency [1] was inconclusive [inhibitor, partial curve] and the Potency [4] was active: 21.3 µM.
In the case of O=C(O)c1ccc(Cl)c(S(=O)(=O)Nc2ccc3cn[nH]c3c2)c1, the Potency [1] is reported as inconclusive [inhibitor, partial curve] and the Potency [4] is reported as inconclusive [inhibitor, single point].
In the case of Cc1nnc(NC(=O)CSCc2cc(=O)c3ccccc3[nH]2)s1, the Potency [1] is reported as inconclusive [inhibitor, full curve] and the Potency [4] is reported as inconclusive [inhibitor, single point].
For Cc1ccc(C)n1/N=C1/NC(=O)CS1, the Potency [1] was inconclusive [inhibitor, full curve] and the Potency [2] was “inactive”.
In the case of CCc1nnc(NC(=O)c2sc3nc4cc(C)ccc4cc3c2N)s1, the Potency [1] is reported as inconclusive [inhibitor, partial curve] and the Potency [2] is reported as active: 21.5 µM.
With Cc1noc(C)c1-c1nccc(-n2ccnc2)n1 the activity change, negative = inhibition [6] was inactive: 16.1% [at 2.29 µM], the Potency [1] was inconclusive [inhibitor, partial curve] and the Potency [5] was “inactive”.
In the case of Cc1ccc(OCc2ccoc2C(=O)O)cc1C, the Potency [1] is reported as inconclusive [inhibitor, partial curve] and the Potency [4] is reported as inconclusive [inhibitor, single point].
In the case of Cc1nnc(NC(=O)CCSCCC(=O)Nc2nnc(C)s2)s1, the Potency [1] is reported as active: 15.8 µM and the Potency [4] is reported as active: 26.9 µM.
